The values that follow come from PMC10470960.

Assay [1] addresses T1, Mum2p fused to the 4xMYC epitope (S. cerevisiae) (UniProt P38236).
T1 sequence: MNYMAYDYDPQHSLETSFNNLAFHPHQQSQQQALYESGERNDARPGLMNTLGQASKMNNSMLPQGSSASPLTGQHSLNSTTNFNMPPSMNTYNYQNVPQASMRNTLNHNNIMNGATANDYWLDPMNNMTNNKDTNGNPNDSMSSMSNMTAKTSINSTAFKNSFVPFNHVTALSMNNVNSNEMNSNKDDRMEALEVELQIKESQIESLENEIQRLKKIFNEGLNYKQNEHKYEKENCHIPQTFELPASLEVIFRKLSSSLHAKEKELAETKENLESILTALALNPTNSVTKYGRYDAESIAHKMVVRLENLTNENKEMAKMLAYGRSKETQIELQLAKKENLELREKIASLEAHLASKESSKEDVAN
Kind of assay: co-IP; Mum2p-4MYC purified on anti-MYC magnetic beads from extracts of cells sporulated for four hours, Kar4p-3HA detected by western blot; lysis buffer 1% Triton-X 100, 0.2 M Tris-HCl pH 7.4, 0.3 M NaCl, 20% glycerol, 0.002 M EDTA; one hour at room temperature.

Assay [2] concerns the target T2, Ime4p fused to the Gal4p DNA-binding domain (S. cerevisiae) (UniProt P41833).
T2 sequence: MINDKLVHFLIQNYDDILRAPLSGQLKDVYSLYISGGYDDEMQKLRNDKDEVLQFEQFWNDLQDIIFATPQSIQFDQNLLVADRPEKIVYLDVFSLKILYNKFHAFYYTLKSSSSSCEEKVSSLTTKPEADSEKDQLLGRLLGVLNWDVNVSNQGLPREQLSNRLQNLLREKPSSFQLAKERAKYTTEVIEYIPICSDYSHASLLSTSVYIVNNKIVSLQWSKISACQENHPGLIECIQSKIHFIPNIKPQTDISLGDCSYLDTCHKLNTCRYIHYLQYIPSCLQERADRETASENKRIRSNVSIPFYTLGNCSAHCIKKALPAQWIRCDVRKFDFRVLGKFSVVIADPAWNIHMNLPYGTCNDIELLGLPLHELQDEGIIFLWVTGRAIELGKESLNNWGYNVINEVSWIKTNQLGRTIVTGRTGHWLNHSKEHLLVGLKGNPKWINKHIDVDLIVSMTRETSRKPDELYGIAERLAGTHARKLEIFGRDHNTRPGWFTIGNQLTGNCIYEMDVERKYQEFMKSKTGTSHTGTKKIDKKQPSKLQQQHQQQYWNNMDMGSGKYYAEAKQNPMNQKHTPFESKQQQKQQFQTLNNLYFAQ
Kind of assay: two-hybrid; fusions swapped: KAR4-GAD with IME4-GBD; ADE2 reporter.

Assay [3] has as its target T3, Slz1p fused to the 3xHA epitope (S. cerevisiae), P40167.
T3 chain: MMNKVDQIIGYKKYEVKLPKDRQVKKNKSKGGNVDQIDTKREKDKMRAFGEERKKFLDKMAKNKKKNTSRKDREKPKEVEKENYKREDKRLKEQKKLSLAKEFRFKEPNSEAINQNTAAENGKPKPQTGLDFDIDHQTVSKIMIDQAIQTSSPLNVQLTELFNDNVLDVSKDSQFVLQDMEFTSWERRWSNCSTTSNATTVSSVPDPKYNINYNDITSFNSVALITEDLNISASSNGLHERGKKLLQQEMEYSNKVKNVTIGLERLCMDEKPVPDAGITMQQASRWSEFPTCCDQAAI
Kind of assay: co-IP; Slz1p-3HA purified on anti-HA magnetic beads and Kar4p-MYC detected, or Kar4p-MYC purified on anti-MYC beads and Slz1p-3HA detected; extracts of cells sporulated for four hours; lysis buffer 1% Triton-X 100, 0.2 M Tris-HCl pH 7.4, 0.3 M NaCl, 20% glycerol, 0.002 M EDTA. The settings on record: remark: other sources report otherwise.

Substitutions are numbered along the chain they refer to. Numbers in names are those of the source. These are yes or no findings as the source states them, for the method shown. For some assays here: Binding seen in cells or lysates may run through a third protein. Some binding calls cover weakened binding; strength is not graded here. Tags and fused reporters may be left off the sequences shown.

B1: Kar4p-3HA ΔP281V282 (protein, UniProt P25583 1-335)
chain: MAFQDPTYDQNKSRHINNSHLQGPNQETIEMKSKHVSFKPSRDFHTNDYSNNYIHGKSLPQQHVTNIENRVDGYPKLQKLFQAKAKQINQFATTPFGCKIGIDSIVPTLNHWIQNENLTFDVVMIGCLTENQFIYPILTQLPLDRLISKPGFLFIWANSQKINELTKLLNNEIWAKKFRRSEELVFVPIDKKSPFYPGLDQDDETLMEKMQWHCWMCITGTVRRSTDGHLIHCNVDTDLSIETKDTTNGAVPSHLYRIAENFSTATRRLHIIPARTGYETKVRPGWVIVSPDVMLDNFSPKRYKEEIANLGSNIPLKNEIELLRPRSPVQKAQ
As for B1, the binding entry in assay [1] is listed as “no binding”.

B2: Kar4p fused to the Gal4p activating domain (protein, UniProt P25583 1-335)
chain: MAFQDPTYDQNKSRHINNSHLQGPNQETIEMKSKHVSFKPSRDFHTNDYSNNYIHGKSLPQQHVTNIENRVDGYPKLQKLFQAKAKQINQFATTPFGCKIGIDSIVPTLNHWIQNENLTFDVVMIGCLTENQFIYPILTQLPLDRLISKPGFLFIWANSQKINELTKLLNNEIWAKKFRRSEELVFVPIDKKSPFYPGLDQDDETLMEKMQWHCWMCITGTVRRSTDGHLIHCNVDTDLSIETKDTTNGAVPSHLYRIAENFSTATRRLHIIPARTGYETPVKVRPGWVIVSPDVMLDNFSPKRYKEEIANLGSNIPLKNEIELLRPRSPVQKAQ
For the molecule B2, in assay [2], the binding entry is given as “binds”.

B3: Kar4p-3HA A85P (protein, UniProt P25583 1-335)
chain: B2 chain with A85P
With B3, the binding entry in assay [1] is recorded as “binds”.

B4: Kar4p-3HA W212R (protein, UniProt P25583 1-335)
chain: B2 chain with W212R
Regarding B4, in assay [1], the binding entry is recorded as “binds”.

B5: Kar4p-3HA E183K (protein, UniProt P25583 1-335)
chain: B2 chain with E183K
With B5, in assay [1], the binding result is listed as “binds”.

B6: Kar4p-3HA M207R (protein, UniProt P25583 1-335)
chain: B2 chain with M207R
With B6, the binding entry in assay [1] is reported as “no binding”.

B7: Kar4p-3HA H213Y (protein, UniProt P25583 1-335)
chain: B2 chain with H213Y
For B7, in assay [1], the binding result is “binds”.

B8: Kar4p-3HA C127Y (protein, UniProt P25583 1-335)
chain: B2 chain with C127Y
Turning to B8, in assay [1], the binding result is “binds”.

B9: Kar4p-3HA P293L (protein, UniProt P25583 1-335)
chain: B2 chain with P293L
In the case of B9, in assay [1], the binding entry is “binds”.

B10: Kar4p-3HA G287D (protein, UniProt P25583 1-335)
chain: B2 chain with G287D
Regarding B10, in assay [1], the binding result was “no binding”.

B11: Kar4p-3HA T264P (protein, UniProt P25583 1-335)
chain: B2 chain with T264P
Turning to B11, in assay [1], the binding result is “binds”.

B12: Kar4p-3HA G126A (protein, UniProt P25583 1-335)
chain: B2 chain with G126A
In the case of B12, in assay [1], the binding entry was “binds”.

B13: Kar4p-3HA E260K (protein, UniProt P25583 1-335)
chain: B2 chain with E260K
For B13, the binding entry in assay [1] is reported as “binds”.

B14: Kar4p-3HA L255F (protein, UniProt P25583 1-335)
chain: B2 chain with L255F
Consider B14, for which, in assay [1], the binding result was “binds”.

B15: Kar4p-3HA E260G (protein, UniProt P25583 1-335)
chain: B2 chain with E260G
Regarding B15, the binding entry in assay [1] is “binds”.

B16: Kar4p-3HA W156G (protein, UniProt P25583 1-335)
chain: B2 chain with W156G
On to B16, for which the binding entry in assay [1] is given as “binds”.

B17: Kar4p fused to the 3xHA epitope (protein, UniProt P25583 1-335)
chain: B2 chain
Turning to B17, the binding entry in assay [1] is on record as “binds”.

B18: Kar4p-3HA F186S (protein, UniProt P25583 1-335)
chain: B2 chain with F186S
Regarding B18, the binding result in assay [1] is “binds”.

B19: Kar4p-3HA A157P (protein, UniProt P25583 1-335)
chain: B2 chain with A157P
Regarding B19, the binding result in assay [1] is “binds”.

B20: Kar4p fused to the 13xMYC epitope, P25583 1-335 (protein)
chain: B2 chain
Take B20: the binding entry in assay [3] is recorded as “binds”.

B21: Kar4p-3HA Q132K (protein, UniProt P25583 1-335)
chain: B2 chain with Q132K
Turning to B21, the binding result in assay [1] was “binds”.

B22: Kar4p-3HA P273L (protein, UniProt P25583 1-335)
chain: B2 chain with P273L
Consider B22, for which the binding entry in assay [1] is “binds”.

B23: Kar4p-3HA A310Stop (domain or fragment, UniProt P25583 1-309)
chain: MAFQDPTYDQNKSRHINNSHLQGPNQETIEMKSKHVSFKPSRDFHTNDYSNNYIHGKSLPQQHVTNIENRVDGYPKLQKLFQAKAKQINQFATTPFGCKIGIDSIVPTLNHWIQNENLTFDVVMIGCLTENQFIYPILTQLPLDRLISKPGFLFIWANSQKINELTKLLNNEIWAKKFRRSEELVFVPIDKKSPFYPGLDQDDETLMEKMQWHCWMCITGTVRRSTDGHLIHCNVDTDLSIETKDTTNGAVPSHLYRIAENFSTATRRLHIIPARTGYETPVKVRPGWVIVSPDVMLDNFSPKRYKEEI
As for B23, the binding result in assay [1] is “binds”.
